# PubChem BioAssay AID686979 (National Center for Advancing Translational Sciences (NCATS), 2013)
# Among all 420,000 compounds or so, about 50,000 (12%) were called active. The inconclusive results got no clear call from the source; some entries with a clear call stand among them for comparison. Calls come from the whole dose curve; as a rule, active = well fitted inhibition curve with a large enough effect; inconclusive = small, poorly fitted or top-dose-only effect; inactive = flat fitted curve, though single readings scatter. No potency is given beside an inconclusive call; the fits are too rough.
# Assay: qHTS for Inhibitors of human tyrosyl-DNA phosphodiesterase 1 (TDP1): qHTS in cells in presence of CPT; note: nearly all actives have a fitted effect of over 55% in size
# Settings: chicken DT40 Tdp1-/-;hTDP1 cells + 20 nM CPT, ATP luminescence, 48 h; activity change, negative = growth inhibition: at 46.2 µM (top of the series) unless noted
# Method in brief: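 Chicken DT40 Tdp1-/- cells complemented with human TDP1, 400 cells/well, exposed to compounds plus 20 nM camptothecin for at least 48 h at 37 C; viability read as ATP content by CellTiter-Glo luminescence.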
# % is set by controls: 0 for no effect and ±100 for the full control effect; potency is the fitted concentration of half-maximal effect; tags give direction and shape of the fitted curve.
SMILES,Potency,"activity change, negative = growth inhibition"
Cc1csc2ncc(C(=O)N3CCCc4ccccc43)c(=O)n12,inactive,–
Cc1ccc(Cn2cc(CN3CC(N(C)C)CS3(=O)=O)nn2)cc1 (configuration not stated),inactive,–
CN1CC=C2C(C#N)=C(N)C(C#N)(C#N)C(c3ccsc3)C2C1 (configuration not stated),"inconclusive [inhibitor, single point]",–
c1ccc(-c2cc3n(c2)CCc2ccccc2-3)cc1,inactive,–
O=S(Cc1cc(Oc2ccccc2)nc(-c2ccccc2)n1)c1ccccc1 (configuration not stated),inactive,–
Cc1ccc(-c2nn(C)c(=O)c3ccccc23)cc1CNC(=O)CN1CCOCC1,"inconclusive [inhibitor, partial curve]",–
CC1(C(=O)Nc2ccc(Cl)cc2)Cc2c(-c3ccc4c(c3)OCO4)ccnc2O1 (configuration not stated),"inconclusive [inhibitor, single point]",–
N#Cc1ccc(CN2C(=O)NC3(CCCCCC3)C2=O)cc1,inactive,–
CCN(CC)CCn1c2ccccc2c2cnc(N)c(C#N)c21,"inconclusive [inhibitor, single point]",–
CCOc1ccccc1NC(=S)NC1CC2CCC1C2 (configuration not stated),"inconclusive [inhibitor, single point]",–
O=C(Nc1ccc(F)cc1)/C(=C1/CCCCCN1)[N+](=O)[O-],inactive,–
O=[N+]([O-])c1ccc(O)c(/C=N/Nc2ccccc2Cl)c1,"inconclusive [inhibitor, single point]",–
O=C1CCC[C@@H]2[C@@H](Cc3ccccc3)[C@H](N3CCN(c4ccccc4)CC3)C[C@@H]3CCN1[C@@H]32,"inconclusive [inhibitor, single point]",–
CCOc1ccc(-c2c(C)nn3c(C)c(C(=O)NCCc4ccc(C)cc4)cnc23)cc1OCC,"inconclusive [inhibitor, partial curve]",–
COC(=O)Cc1c(C)c2ccc3c(c2oc1=O)CN(Cc1ccccc1Cl)CO3,"inconclusive [inhibitor, partial curve]",–
NC1CONC1=O (configuration not stated),inactive,–
Cc1nc2cccnc2n1C1CCN(C(=O)Nc2ccc(Cl)cc2)CC1,"inconclusive [inhibitor, single point]",–
NC(=Nc1ccccc1)N(c1ccccc1)c1ccccc1,"inconclusive [inhibitor, single point]",–
COc1cc(/C=C(\C#N)C(=O)Nc2ccccc2C(=O)O)cc(Cl)c1OC,"inconclusive [inhibitor, partial curve]",–
CCOc1ccc(C2=C/C(=C/c3cccnc3)C(=O)O2)cc1,"inconclusive [inhibitor, single point]",–
CC(C)CNC(=O)NC(=O)COC(=O)Cn1cnc2ccccc2c1=O,"inconclusive [inhibitor, full curve, poor fit]",–
Cc1c(CNC(=O)c2cnn3c2NC(c2ccc(Br)cc2)CC3C(F)(F)F)cnn1C (configuration not stated),"inconclusive [inhibitor, partial curve]",–
Cc1cccc(OCCCC(=O)Nc2ccc(S(=O)(=O)N3CCCC3)cc2)c1,"inconclusive [inhibitor, single point]",–
Cc1cccn2c(=O)c3cc(C(=O)NCCc4ccccc4)c(=N)n(Cc4ccco4)c3nc12,active: 20.6 µM,–

SMILES,Potency,"activity change, negative = growth inhibition"
O=C(NCCSc1c[nH]c2ccccc12)c1ccccc1Cl,inactive,–
COc1ccc(NC(=O)C2CCN(S(=O)(=O)c3c(C)noc3/C=C/c3cccs3)CC2)cc1Cl,"inconclusive [inhibitor, single point]",–
COc1cccc(CNS(=O)(=O)c2ccc3c(c2)CC(C)N3C(=O)C2CC2)c1 (configuration not stated),active: 20.6 µM,–
CCCOc1ccccc1-n1sc2c(c1=S)-c1cc(OC)cc3c1N(C(=O)C3=O)C2(C)C,active: 16.4 µM,–
CCN1CCN(CC(=O)c2c(C)n(C)c3ccc(OC)cc23)CC1,inactive,–
COc1ccc(/C=N/NC(=O)Nc2cccc3nsnc23)cc1OC,active: 9.2 µM,–
CC1(C(=O)NS(=O)(=O)c2ccc(Cl)s2)CCN1C(=O)c1ccccc1CCc1ccccc1 (configuration not stated),"inconclusive [inhibitor, single point]",–
O=C(Nc1ccncc1)C1C(=O)c2ccccc2N(Cc2ccccc2)C1=O (configuration not stated),active: 1 µM,–
C/C(=N\NC(=O)c1ccc(O)cc1)c1cccc(NC(=O)c2ccccc2C)c1,"inconclusive [inhibitor, single point]",–
COc1ccc(CN2C[C@H]3CON(C)[C@H]3C[C@H]2c2ccc(-c3cccc(F)c3)cc2)cc1,"inconclusive [inhibitor, single point]",–
O=C(CCC(=O)N1CCN(S(=O)(=O)c2ccccc2)CC1)NC1CCCc2ccccc21 (configuration not stated),"inconclusive [inhibitor, single point]",–
CCc1ccc(CN(C)CC(=O)Nc2ccc(S(=O)(=O)N3CCOCC3)cc2)cc1,"inconclusive [inhibitor, single point]",–
O=[N+]([O-])c1cc2ccccc2c(O)c1O,active: 23.1 µM,–
CC(NCc1cc(Br)ccc1OCC(=O)NCc1ccccc1)c1ccccc1 (configuration not stated),"inconclusive [inhibitor, single point]",–
COc1ccc(NC(=O)CCNS(=O)(=O)c2ccc3c(c2)c(=O)n(C)c(=O)n3C)c(OC)c1,inactive,–
CCOc1ccc(S(=O)(=O)N2CCC(C(=O)N3CCOCC3)CC2)cc1Cl,"inconclusive [inhibitor, single point]",–
COCCNC(=O)c1ccccc1NC(=O)c1nsc2ccccc12,"inconclusive [inhibitor, single point]",–
CN(/N=C/c1cc(Cl)ccc1O)C1=NS(=O)(=O)c2ccccc21,active: 16.4 µM,–
CN(C)CCCNC(=O)/C(=C/c1ccc(-c2ccc([N+](=O)[O-])cc2)o1)NC(=O)c1ccccc1,"inconclusive [inhibitor, single point]",–
O=C(CCSCc1ccc(Cl)cc1)NCc1cccs1,inactive,–
COc1ccc(C(=O)N/N=C/c2ccccn2)cc1,"inconclusive [inhibitor, single point]",–
C=CCn1c(COc2ccccc2)nnc1SCc1ccc(C#N)cc1,"inconclusive [inhibitor, single point]",–
COC(=O)c1ccc(CSC(=N)N)o1,active: 16.4 µM,–
O=C(Oc1cccc2c(=O)[nH]ccc12)c1ccccc1,"inconclusive [inhibitor, partial curve]",–

SMILES,Potency,"activity change, negative = growth inhibition"
Cn1c(SCC(=O)c2ccc3c(c2)Cc2ccccc2-3)nnc1-c1ccccc1,inactive,–
COc1ccc(-c2csc(NC(=O)Cc3cc(OC)c(OC)c(OC)c3)n2)cc1OC,active: 20.6 µM,–
COc1cc(C=NNc2ccccc2[N+](=O)[O-])cc(OC)c1OC,"inconclusive [inhibitor, full curve]",–
Cc1cccn2c(=O)c(/C=C(\C#N)C(=O)NCc3ccco3)c(N3CCOCC3)nc12,"inconclusive [inhibitor, single point]",–
Cc1nnsc1-c1nc2ccccc2n1C(CCc1ccccc1)c1nc2ccccc2[nH]1 (configuration not stated),"inconclusive [inhibitor, single point]",–
CCCc1ccc2oc(C(=O)N(Cc3ccncc3)CC3CCCO3)c(C)c2c1 (configuration not stated),"inconclusive [inhibitor, single point]",–
COc1ccc2c(=O)cc(CO)oc2c1,–,inconclusive: -18.2% [inhibitor]
O=C(O)/C=C/c1ccc(OCc2cccc(F)c2)cc1,"inconclusive [inhibitor, single point]",–
CC(=O)Nc1ccc(S(=O)(=O)N2c3ccc(F)cc3CCC2C)cc1 (configuration not stated),active: 7.31 µM,–
COc1ccccc1CNC(=O)c1ccc(NS(=O)(=O)c2c(C)noc2C)cc1,inactive,–
Cc1ccc(-n2cnnn2)cc1S(N)(=O)=O,inactive,–
COc1nc(-c2ccccc2)cc(-c2ccc(OC)c(OC)c2)n1,"inconclusive [inhibitor, single point]",–
Cc1ccc(-c2csc3ncnc(N4CCN(c5ccccc5O)CC4)c23)cc1,"inconclusive [inhibitor, single point]",–
O=C1N[C@@H](Cc2ccccc2)C(=O)N2[C@H]1C[C@]1(Br)c3ccccc3N(S(=O)(=O)c3ccccc3)[C@H]21,"inconclusive [inhibitor, partial curve, poor fit]",–
CC(C)(C)Nc1nc(SCC(=O)Nc2ccccc2Cl)nc(N2CCOCC2)n1,"inconclusive [inhibitor, single point]",–
Cc1ccc(C)c(S(=O)(=O)N2CCCC2CNC(=O)C(=O)NC2CCCC2)c1 (configuration not stated),inactive,–
COc1cccc(Cn2cc(C(=O)c3ccc(Cl)cc3)c(=O)c3ccccc32)c1,"inconclusive [inhibitor, single point]",–
CCCCn1c(N)c(N(CC)C(=O)CCNC(=O)c2ccc(Cl)cc2)c(=O)[nH]c1=O,inactive,–
Cc1ccc(S(=O)(=O)N(C)C)cc1NC(=O)CN1c2cccc3cccc(c23)S1(=O)=O,inactive,–
CCOc1ccc(NC(=O)CN(C)C(=O)c2c(C)noc2C)cc1OCC,inactive,–
COc1ccc(CNC[C@H]2O[C@@H](n3ccc(=O)[nH]c3=O)[C@H](O)[C@@H]2O)cc1OC,inactive,–
Cc1ccc(-n2c(C)csc2=N)cc1,"inconclusive [inhibitor, partial curve]",–
CCSc1ncc(Cl)c(C(=O)Nc2cccc(Cl)c2)n1,active: 10.3 µM,–
CCn1c(-c2ccccc2F)nc2cc(NC(C)=O)cc(C(=O)N(C)Cc3c(C)nc4ccccn34)c21,inactive,–
